Data from patent US20090047272.

Target: G-actin in human serum

B1: hyperactive/actin-resistant version mc/arDNase (+6), substitutions E13R/T14K/H44R/N74K/T205K/A114R (protein)
chain: LKIAAFNIQTFGRKKMSNATLVSYIVQILSRYDIALVQEVRDSRLTAVGKLLDNLNQDAPDTYHYVVSEPLGRKSYKERYLFVYRPDQVSAVDSYYYDDGCEPCGNDTFNREPRIVRFFSRFTEVREFAIVPLHAAPGDAVAEIDALYDVYLDVQEKWGLEDVMLMGDFNAGCSYVRPSQWSSIRLWTSPTFQWLIPDSADTTAKPTHCAYDRIVVAGMLLRGAVVPDSALPFNFQAAYGLSDQLAQAISDHYPVEVMLK
Average T50 (min) 50% DNA hydrolysis in human serum: 1 min | Time T50 (min) 50% DNA hydrolysis in human serum: 0.5; 1; 1.5
